Data taken from PubChem BioAssay AID485344 (National Center for Advancing Translational Sciences (NCATS), 2010).
In all, about 340,000 compounds went through this assay and about 6,900 (2%) were called active. No stated cut-off is given here; in the data, active means inhibition above about 30%; inactive means below that, where a call was filed. The list shows a part of the results, in another mix than the full data. Where no call is shown, the source filed none.

Target: D(2) dopamine receptor (Homo sapiens) (UniProt P14416)
Assay: HTS Assay for Allosteric Antagonists of the Human D2 Dopamine Receptor: Primary Screen for Antagonists; further: 0% is about no effect
Conditions: HEK293 TREx D2 cells, calcium flux, dopamine EC80; at 10 µM; stronger effect = higher value
How it was run: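 Measurement of antagonist activity uses fluorescent calcium dye in inducible HEK293 T-REx D2 cells: 10 s baseline, compound addition with 180 s read, EC80 dopamine addition with a further 180 s read.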

UniProt P14416, sequence (P14416 whole entry, looked up): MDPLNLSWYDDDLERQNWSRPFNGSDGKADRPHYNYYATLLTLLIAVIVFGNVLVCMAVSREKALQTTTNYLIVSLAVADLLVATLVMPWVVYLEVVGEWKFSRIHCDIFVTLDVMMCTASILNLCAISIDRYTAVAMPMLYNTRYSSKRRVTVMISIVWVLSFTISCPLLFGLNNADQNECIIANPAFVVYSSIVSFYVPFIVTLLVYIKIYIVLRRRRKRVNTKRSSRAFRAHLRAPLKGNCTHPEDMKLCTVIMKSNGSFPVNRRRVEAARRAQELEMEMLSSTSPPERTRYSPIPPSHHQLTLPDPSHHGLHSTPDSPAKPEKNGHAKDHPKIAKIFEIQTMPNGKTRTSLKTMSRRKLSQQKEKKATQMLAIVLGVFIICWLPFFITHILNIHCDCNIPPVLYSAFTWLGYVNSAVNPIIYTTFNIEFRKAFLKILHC

SMILES | inhibition
CCCCOc1ccc(CNC(=O)c2cc3n(n2)CCCN(Cc2ccc(C)cc2)C3=O)cc1 | 2.87%
COc1ccc(OCCn2c(C)nc3cc(C)c(C)cc32)cc1 | 3.03%
CCOCc1nnc(NC(=O)c2ccc(OC)cc2)s1 | active: 32.9%
CCOC(=O)c1ccccc1NC(=O)n1ncc2cc(Cl)ccc21 | -11.6%
CCc1cccc(C)c1NC(=O)c1cc(S(=O)(=O)N2CCOCC2)cn1C | -6.13%
Cc1noc(C)c1S(=O)(=O)Nc1ccc(C(=O)Nc2ccc(Br)cc2)cc1 | 16.4%
COc1cc(NC(=O)CCn2cnc3ccccc3c2=O)cc(OC)c1 | 7.36%
Cc1cc(C)cc(NC(=O)C2CCCN(c3ncccn3)C2)c1 (configuration not stated) | active: 50.1%
CCCn1c(=N)c(C(=O)NC2CCCC2)cc2c(=O)n3cccc(C)c3nc21 | -3.37%
COc1ccc(/C=C(/C#N)c2nc(-c3ccc(-c4ccccc4)cc3)cs2)cc1OC | 4.21%
COc1ccc(C2Nc3ccc(Br)cc3C(c3ccccc3)N2CC(=O)O)cc1 (configuration not stated) | active: 61.2%
COc1ccccc1C(=O)N1CCN(Cc2nc3cc([N+](=O)[O-])ccc3n2C)CC1 | active: 35.7%
COc1ccc(-c2c(C)nn3c(N4CCN(c5ccccc5)CC4)cc(C)nc23)cc1OC | 10.6%
COc1ccc(NC(=O)CC2C(=O)N(c3ccc(F)cc3)C(=O)N2Cc2ccc3c(c2)OCO3)cc1 (configuration not stated) | 15.1%
Cc1ccc(CNc2ncnc3c2nc2n3CCCC2)cc1 | -1.26%
CCN(C(=O)CSc1nc2ccccc2n1CC(=O)NCc1ccc(OC)cc1)c1ccccc1 | 5.1%
Cc1ccc2nc(CSc3nnc(NC(=O)c4cccc(Br)c4)s3)cc(=O)n2c1 | -1.03%
CCOC(=O)c1cc(-c2ccccc2)n(CCC(=O)NC2CCCCC2)c1C | 6.99%
CCOC(=O)c1ccc(NC(=O)CN2c3ccccc3S(=O)(=O)c3ccccc32)cc1 | -6.83%
COc1cccc(CNC(=O)CCCN2C(=O)CCn3nc(-c4cccn4C)cc32)c1 | 3.88%
CCOC(=O)c1cccc(NC(=O)Cn2c(=O)nc(-c3ccccc3F)c3cc(Cl)ccc32)c1 | -3.86%

SMILES | inhibition
CCOc1ccc(CCNC(=O)c2csc3c2CCCCC3)cc1 | 25.8%
COc1ccccc1NC(=O)CSc1nnc2c3ccccc3n(C(C)C)c2n1 | 10.9%
COc1ccc(/C=C\c2onc(C)c2S(=O)(=O)N2CCC(C(=O)Nc3cccc(Cl)c3)CC2)cc1 | 9.55%
CCOC(=O)N1CCN(c2ncc3c(n2)CC(c2ccccc2O)CC3=O)CC1 (configuration not stated) | -0.848%
COc1ccc(CCNC(=O)CCc2c(C)nc3cc(-c4ccccc4OC)nn3c2C)c(OC)c1 | 1.28%
Cc1ccc(Nc2nnc(-c3cc4c(ccc5ccccc54)oc3=O)s2)cc1 | -7.81%
COc1cccc(C(=O)N2CCc3c([nH]c4ccccc34)C2c2ccc(SC)cc2)c1 (configuration not stated) | -14.9%
COC(=O)c1ccc(OCCN2CCCCCC2)cc1 | active: 55%
CNC(=O)C1CCC(Cn2c(=O)c3sccc3n(CC(=O)NCc3cccc(OC)c3)c2=O)CC1 (configuration not stated) | -16.9%
Cc1cc(C)cc(Nc2cc(C)nc3nncn23)c1 | -24.3%
CCC(CC)C(=O)Nc1ccc(-c2cn3cccnc3n2)cc1 | 11%
Cc1cccc(-c2nc3scc(CCNC(=O)c4ccc(Br)o4)n3n2)c1 | -9.18%
Cc1ccc(C)c(N2CCN(CCCNC(=O)C3COc4ccccc4C3)CC2)c1 (configuration not stated) | -16.8%
Cc1cccc(NC(=O)c2ccc(C(=O)Nc3cccc(C)c3C)cc2)c1C | -0.24%
CCC(=O)N1CCc2cc(Br)cc(S(=O)(=O)N3CCN(c4ccc(C(C)=O)cc4)CC3)c21 | -14.7%
CN1CCN(C(c2ccccc2Cl)c2sc3nc(-c4ccco4)nn3c2O)CC1 (configuration not stated) | 15.1%
O=C(CCCCn1c(=O)c2ccccc2n(Cc2ccc(Cl)cc2)c1=O)NCc1ccccc1Cl | 2.41%
Cc1cc(OC(C)C(=O)N(Cc2ccco2)Cc2ccccc2F)cc(C)c1Cl (configuration not stated) | -6.37%
COc1ccc(C)cc1NCc1nnc2n1CCCCC2 | -26.4%
Cc1ccc(CCNC(=O)C2CCN(c3nnc(C)c4c(C)n(-c5ccccc5)nc34)CC2)cc1 | 1.47%
COc1ccc(-c2cc(C(=O)Oc3cccc(C)c3)c3ccccc3n2)cc1 | -5.29%

SMILES | inhibition
COc1ccc(NC(=O)C2CCCN(C(=O)c3cnn(-c4ccc(F)cc4)c3-n3cccc3)C2)cc1 (configuration not stated) | 3.11%
Cn1c(=O)cc(OCC(=O)N2CCN(c3ccccc3)CC2)c2ccccc21 | 3.83%
COc1ccc(NC(=O)CSc2nc3ncccc3[nH]2)c(OC)c1 | 10.8%
CCOc1cccc2sc(N(Cc3cccnc3)C(=O)C3CCCCC3)nc12 | 8.09%
Cc1ccc(NC(=O)CSCc2cnn(-c3ccccc3)c2-n2cccc2)c(C)c1 | -8.39%
Cc1ccc(NC(=O)CSc2nc3ccccc3c3nc(CCn4cncc4C)nn23)cc1F | 3.02%
CCc1ccccc1NC(=O)c1ccc(F)c(S(=O)(=O)NC2CCCCCC2)c1 | 4%
CC1CCN(c2ccc(NC(=O)c3cccc(Cl)c3)cc2C(=O)O)CC1 | -7.24%
Cc1ccc(-c2cc(C(=O)NC(C)c3ccccc3)c3ccccc3n2)cc1C (configuration not stated) | -19.4%
CCCS(=O)(=O)c1ncc(Cl)c(C(=O)N2CCN(c3ccc(OC)cc3)CC2)n1 | 5.9%
Cc1ccc2ncc(C(=O)NCc3ccccc3Cl)c(=O)n2c1 | 4.84%
CCC(CC)C(=O)Nc1ccc(OCc2cc(=O)n3ccsc3n2)cc1 | -2.71%
CC(=O)Nc1ccccc1-c1nc2ccccc2n(CC(=O)c2ccc(C)c(C)c2)c1=O | 16.3%
Cc1cccc(C(=O)Nc2c3c(nn2-c2ccc(Cl)cc2)CS(=O)(=O)C3)c1 | 20.7%
CCOC(=O)c1ccc2c(c1)N(Cc1cccc(OC)c1)C(=O)c1ccccc1S2(=O)=O | -3.61%
CC(C)(C)OC(=O)N1CCC(c2c(C(=O)NC3CCN(Cc4ccccc4)CC3)cnn2-c2cccc(F)c2)CC1 | 11.2%
O=C(CSc1nc(-c2ccc(F)cc2)cc(C(F)(F)F)n1)NCc1ccccc1 | -13.9%
COc1cc(C2C(=O)N(C3CCCCC3)CC(=O)N2C2CCCC2)ccc1OC(C)C (configuration not stated) | 6.74%
CCCCNC(=O)CCC(=O)NNc1nc2ccccc2c2nc(-c3ccccc3)nn12 | 0.0497%
CC(=O)Nc1ccc(NC(=O)CCCc2nc(-c3ccc(C(C)(C)C)cc3)no2)cc1 | -2.13%
